# Laboratory results reported in the supplement of paper PMC8728848.
# The other results are listed elsewhere or left out.
# Tests used:
# Assay in all cases: glycan array binding signal (z-score within array); higher = stronger binding
# Conditions in all cases: glycan notation: IUPAC condensed, linker removed
# [1] = target: Gal(b1-4)GlcNAc(b1-2)[Gal(b1-4)GlcNAc(b1-4)]Man(a1-3)[GlcNAc(b1-4)][Gal(b1-4)GlcNAc(b1-2)Man(a1-6)]Man(b1-4)GlcNAc(b1-4)GlcNAc
# In short: (§1)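 From the Consortium for Functional Glycomics database, 3228 arrays were curated, keeping only those whose protein sequence was available. Binding is given as a within-array Z-score averaged across arrays sharing a protein sequence and across linkers. Negative Z-scores can be read as non-binding.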
# [2] = target: Gal(b1-4)GlcNAc(b1-2)[Gal(b1-4)GlcNAc(b1-4)]Man(a1-3)[GlcNAc(b1-4)][Gal(b1-4)GlcNAc(b1-2)[Gal(b1-4)GlcNAc(b1-6)]Man(a1-6)]Man(b1-4)GlcNAc(b1-4)GlcNAc
# In short: as §1
# [3] = target: Gal(b1-4)GlcNAc(b1-2)[Gal(b1-4)GlcNAc(b1-4)]Man(a1-3)[GlcNAc(b1-4)][Gal(b1-4)GlcNAc(b1-2)[Gal(b1-4)GlcNAc(b1-6)]Man(a1-6)]Man(b1-4)GlcNAc(b1-4)[Fuc(a1-6)]GlcNAc
# In short: as §1
# [4] = target: Gal(b1-4)GlcNAc(b1-2)[Gal(b1-4)GlcNAc(b1-6)]Man(a1-6)[Gal(b1-4)GlcNAc(b1-2)Man(a1-3)]Man(b1-4)GlcNAc(b1-4)GlcNAc
# In short: as §1
# [5] = target: Gal(b1-4)GlcNAc(b1-2)[Gal(b1-4)GlcNAc(b1-6)]Man(a1-6)[Gal(b1-4)GlcNAc(b1-2)Man(a1-3)]Man(b1-4)GlcNAc(b1-4)[Fuc(a1-6)]GlcNAc
# In short: as §1
# [6] = target: Gal(b1-4)GlcNAc(b1-2)[Gal(b1-4)GlcNAc(b1-6)]Man(a1-6)[GlcNAc(b1-4)][Gal(b1-4)GlcNAc(b1-2)Man(a1-3)]Man(b1-4)GlcNAc(b1-4)GlcNAc
# In short: as §1
# [7] = target: Gal(b1-4)GlcNAc(b1-3)Gal(b1-3)GlcNAc
# In short: as §1
# [8] = target: Gal(b1-4)GlcNAc(b1-3)Gal(b1-4)Glc
# In short: as §1
# [9] = target: Gal(b1-4)GlcNAc(b1-3)Gal(b1-4)GlcNAc
# In short: as §1
# [10] = target: Gal(b1-4)GlcNAc(b1-3)Gal(b1-4)GlcNAc(b1-3)Gal(b1-4)GlcNAc
# In short: as §1
# [11] = target: Gal(b1-4)GlcNAc(b1-3)Gal(b1-4)[Fuc(a1-3)GlcNAc(b1-6)]Gal(b1-4)Glc
# In short: as §1
# [12] = target: Gal(b1-4)GlcNAc(b1-3)Gal(b1-4)[Fuc(a1-3)]GlcNAc(b1-3)Gal(b1-4)[Fuc(a1-3)]GlcNAc
# In short: as §1
# [13] = target: Gal(b1-4)GlcNAc(b1-3)GalNAc
# In short: as §1
# [14] = target: Gal(b1-4)GlcNAc(b1-3)[Gal(b1-4)GlcNAc(b1-6)]Gal(b1-4)GlcNAc
# In short: as §1
# [15] = target: Gal(b1-4)GlcNAc(b1-3)[Gal(b1-4)GlcNAc(b1-6)]GalNAc
# In short: as §1
# [16] = target: Gal(b1-4)GlcNAc(b1-3)[GlcNAc(b1-6)]Gal(b1-4)GlcNAc
# In short: as §1
# [17] = target: Gal(b1-4)GlcNAc(b1-6)Gal(b1-4)GlcNAc
# In short: as §1
# [18] = target: Gal(b1-4)GlcNAc(b1-6)GalNAc
# In short: as §1
# [19] = target: Gal(b1-4)GlcNAc(b1-6)[Gal(b1-3)]GalNAc
# In short: as §1
# [20] = target: Gal(b1-4)GlcNAc6P
# In short: as §1
# [21] = target: Gal(b1-6)Gal
# In short: as §1
# [22] = target: Gal3S(b1-3)GalNAc
# In short: as §1
# [23] = target: Gal3S(b1-3)GlcNAc
# In short: as §1
# [24] = target: Gal3S(b1-3)[Fuc(a1-4)]GlcNAc
# In short: as §1
# [25] = target: Gal3S(b1-4)Glc
# In short: as §1
# [26] = target: Gal3S(b1-4)Glc6S
# In short: as §1
# [27] = target: Gal3S(b1-4)GlcNAc
# In short: as §1
# [28] = target: Gal3S(b1-4)GlcNAc6S
# In short: as §1
# [29] = target: Gal3S(b1-4)[Fuc(a1-3)]Glc
# In short: as §1
# [30] = target: Gal3S(b1-4)[Fuc(a1-3)]Glc6S
# In short: as §1
# [31] = target: Gal3S4S(b1-4)GlcNAc
# In short: as §1
# [32] = target: Gal3S6S(b1-4)GlcNAc
# In short: as §1
# [33] = target: Gal3S6S(b1-4)GlcNAc6S
# In short: as §1
# [34] = target: Gal4S(b1-4)GlcNAc
# In short: as §1
# [35] = target: Gal4S6S(b1-4)GlcNAc
# In short: as §1
# [36] = target: Gal6P(b1-4)GlcNAc
# In short: as §1
# [37] = target: Gal6S(b1-3)GlcNAc
# In short: as §1
binder,measurement,setting,value
"Strep tagII-anxA1 (Homo sapiens), P04083 (protein) MAMVSEFLKQAWFIENEEQEYVQTVKSSKGGPGSAVSPYPTFNPSSDVAALHKAIMVKGVDEATIIDILTKRNNAQRQQIKAAYLQETGKPLDETLKKALTGHLEEVVLALLKTPAQFDADELRAAMKGLGTDEDTLIEILASRTNKEIRDINRVYREELKRDLAKDITSDTSGDFRNALLSLAKGDRSEDFGVNEDLADSDARALYEAGERRKGTDVNVFNTILTTRSYPQLRRVFQKYTKYSKHDMNKVLDLELKGDIEKCLTAIVKCATSKPAFFAEKLHQAMKGVGTRHKALIRIMVSRSEIDMNDIKAFYQKMYGISLCQAILDETKGDYEKILVALCGGN",glycan array binding signal (z-score),[1],-0.723
same,glycan array binding signal (z-score),[2],0.034
same,glycan array binding signal (z-score),[3],-0.742
same,glycan array binding signal (z-score),[4],1.51
same,glycan array binding signal (z-score),[5],1.21
same,glycan array binding signal (z-score),[6],-0.186
same,glycan array binding signal (z-score),[7],-0.436
same,glycan array binding signal (z-score),[8],-0.737
same,glycan array binding signal (z-score),[9],-0.748
same,glycan array binding signal (z-score),[10],-0.696
same,glycan array binding signal (z-score),[11],-0.754
same,glycan array binding signal (z-score),[12],-0.493
same,glycan array binding signal (z-score),[13],-0.387
same,glycan array binding signal (z-score),[14],-0.59
same,glycan array binding signal (z-score),[15],-0.015
same,glycan array binding signal (z-score),[16],-0.399
same,glycan array binding signal (z-score),[17],-0.597
same,glycan array binding signal (z-score),[18],-0.511
same,glycan array binding signal (z-score),[19],-0.556
same,glycan array binding signal (z-score),[20],-0.618
same,glycan array binding signal (z-score),[21],-0.735
same,glycan array binding signal (z-score),[22],-0.412
same,glycan array binding signal (z-score),[23],-0.002
same,glycan array binding signal (z-score),[24],-0.165
same,glycan array binding signal (z-score),[25],0.607
same,glycan array binding signal (z-score),[26],-0.613
same,glycan array binding signal (z-score),[27],2.08
same,glycan array binding signal (z-score),[28],-0.345
same,glycan array binding signal (z-score),[29],1.09
same,glycan array binding signal (z-score),[30],0.105
same,glycan array binding signal (z-score),[31],0.589
same,glycan array binding signal (z-score),[32],0.386
same,glycan array binding signal (z-score),[33],-0.647
same,glycan array binding signal (z-score),[34],-0.285
same,glycan array binding signal (z-score),[35],-0.739
same,glycan array binding signal (z-score),[36],-0.017
same,glycan array binding signal (z-score),[37],-0.459
